Results published in the supplement of paper PMC12217912.
This is one part of the list. Sequences were assembled here from the parent chain. Values near 0.05 are background.

B1: TEV protease; numbered along this chain (parent)
chain: MGESLFKGPRDYNPISSSICHLTNESDGHTTSLYGIGFGPFIITNKHLFRRNNGTLVVQSLHGVFKVKDTTTLQQHLVDGRDMIIIRMPKDFPPFPQKLKFREPQREERICLVTTNFQTKSMSSMVSDTSCTFPSGDGIFWKHWIQTKDGQCGSPLVSTRDGFIVGIHSASNFTNTNNYFTSVPKNFMELLTNQEAQQWVSGWRLNADSVLWGGHKVFMVKPEEPFQPVKEATQL

Variants of: B1
Assay: raw area under fraction-flipped curve 0-4 h after induction (AUC4h, not background-subtracted), DNA-recorder readout of cleavage of the substrate (dimensionless); higher = more cleavage of the substrate by the protease variant
Conditions: temperature: 34 °C; time window: 0-4 h after rhamnose induction
Procedure: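 In vivo DNA recorder in E. coli TOP10(DE3) ΔrhaA at 34 °C. Each TEVp single-site mutant (parent TEVp 0) is paired with a single-site variant of the 7-mer TEVs (canonical ENLYFQ|S). The substrate sits between flexible linkers in a Bxb1-sfGFP-TEVs-SsrA fusion, so cleavage stabilises Bxb1 and speeds flipping of a recombination array, read by NGS. The value is the raw area under the fraction-flipped curve over 0-4 h after rhamnose induction (AUC4h), with ≥20 reads per time point. It is not background-subtracted; inactive controls average about 0.047.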
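Also: Bxb1 expression induced with 0.2% (w/v) L-rhamnose at OD600 near 0.5, cultures sampled hourly, flipped fraction per protease–substrate barcode pair counted by paired-end Illumina sequencing.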

Variant | area with substrate EALYFQS | area with substrate EDLYFQS | area with substrate EFLYFQS | area with substrate EHLYFQS | area with substrate EILYFQS | area with substrate EMLYFQS | area with substrate EPLYFQS | area with substrate ESLYFQS | area with substrate EVLYFQS | area with substrate EWLYFQS
E223V | 0.1 | 0.138 | 0.122 | 0.0676 | 0.0998 | 0.0863 | 0.112 | 0.0949 | 0.1 | 0.0811
E223W | 0.097 | – | – | 0.0783 | 0.114 | 0.135 | – | 0.0884 | 0.0804 | 0.0928
V183Q | 0.0678 | – | – | 0.0595 | – | – | 0.0522 | 0.0601 | 0.044 | 0.0609
L191S | 0.0557 | – | – | 0.0594 | – | – | – | 0.0607 | – | 0.0709
L191E | 0.0666 | 0.0578 | 0.0578 | 0.0971 | 0.0614 | – | 0.0665 | 0.0495 | 0.0546 | 0.0624
T174W | 0.153 | – | 0.0936 | – | 0.109 | – | 0.122 | 0.0902 | – | 0.0884
T174Q | 0.105 | – | – | – | 0.0685 | – | – | 0.105 | 0.0823 | –
T159N | 0.121 | – | – | – | – | 0.121 | 0.134 | – | – | –
V229A | 0.0824 | 0.0565 | 0.109 | – | 0.0804 | 0.131 | – | 0.108 | 0.0874 | 0.0906
G213V | 0.0669 | – | – | – | – | 0.0603 | – | – | – | –
A207G | 0.0663 | – | – | – | 0.0969 | 0.12 | 0.114 | 0.0979 | 0.0917 | 0.0704
L235K | 0.163 | – | – | – | 0.108 | – | – | 0.119 | 0.106 | 0.0886
Y179F | 0.107 | – | – | – | 0.0912 | – | – | – | 0.0702 | –
Q198M | 0.103 | – | 0.0947 | 0.124 | – | 0.112 | – | 0.103 | 0.0891 | –
V157Q | 0.0921 | – | – | 0.0718 | 0.0877 | 0.0865 | 0.0887 | – | 0.074 | –
V157P | 0.0469 | – | – | – | 0.0504 | – | 0.0089 | 0.0582 | 0.0645 | 0.0474
G2R | – | 0.158 | – | – | 0.0961 | 0.14 | – | – | 0.119 | –

Variant | area with substrate EALYFQS | area with substrate EDLYFQS | area with substrate EFLYFQS | area with substrate EHLYFQS | area with substrate EILYFQS | area with substrate EMLYFQS | area with substrate EPLYFQS | area with substrate ESLYFQS | area with substrate EVLYFQS | area with substrate EWLYFQS
G202D | 0.0752 | – | – | 0.0796 | 0.0663 | – | – | 0.0594 | – | –
G202P | 0.0886 | – | 0.0575 | 0.064 | 0.0417 | 0.0687 | – | 0.0735 | 0.0738 | 0.0473
D208P | 0.0781 | – | – | 0.0735 | – | – | – | 0.0664 | 0.0691 | –
V217F | 0.0795 | – | – | – | 0.0429 | – | – | – | – | –
V217T | 0.122 | 0.0824 | – | – | 0.0807 | 0.0751 | 0.0409 | 0.0706 | 0.0626 | 0.0657
W212R | 0.0504 | 0.0739 | 0.0572 | – | 0.0574 | 0.0606 | – | 0.0624 | 0.0715 | 0.0803
W212C | 0.118 | – | – | 0.0858 | 0.137 | 0.119 | 0.122 | 0.115 | – | –
N178D | 0.0688 | – | – | – | – | 0.0685 | – | 0.0668 | – | –
N178H | 0.185 | – | – | – | 0.134 | 0.167 | 0.143 | – | 0.12 | 0.117
N178G | 0.123 | – | – | – | – | 0.13 | – | 0.114 | 0.118 | 0.0976
N206Y | 0.0861 | – | – | – | – | 0.0894 | – | – | – | –
Q234A | 0.12 | – | – | 0.151 | 0.084 | 0.132 | – | 0.084 | – | –
P228M | 0.101 | – | – | 0.0886 | 0.102 | 0.126 | – | 0.109 | 0.0789 | 0.0752
P228L | 0.146 | 0.0328 | – | 0.151 | 0.0857 | – | – | 0.112 | – | –
P228K | 0.127 | – | – | – | 0.111 | – | 0.121 | 0.0912 | 0.105 | –
S182I | 0.0999 | 0.113 | 0.0965 | – | 0.0914 | – | 0.111 | 0.0907 | 0.0808 | –
N193L | 0.106 | 0.123 | – | – | 0.0664 | – | 0.1 | 0.0867 | 0.0819 | –

Same assay, conditions: temperature: 34 °C; time window: 0-4 h after rhamnose induction

Variant | area with substrate EGLYFQS | area with substrate EKLYFQS | area with substrate ERLYFQS | area with substrate EELYFQS | area with substrate ELLYFQS | area with substrate EQLYFQS | area with substrate ETLYFQS | area with substrate ECLYFQS | area with substrate EYLYFQS
E223W | 0.0742 | 0.117 | 0.0877 | – | – | – | – | – | –
V183Q | 0.05 | 0.0572 | 0.0524 | 0.0472 | 0.0533 | – | – | – | –
L191S | – | 0.0419 | 0.0609 | 0.0622 | 0.0361 | 0.0596 | – | – | –
L191E | – | – | 0.0478 | – | – | 0.0402 | 0.0677 | – | –
T174W | 0.0858 | 0.0796 | – | 0.0378 | – | – | – | – | –
T174Q | – | 0.0891 | 0.092 | 0.117 | – | – | 0.0956 | 0.073 | –
T159N | – | – | – | – | – | 0.116 | – | 0.091 | –
V229A | – | – | 0.0933 | 0.115 | 0.0884 | 0.221 | – | – | –
G213V | – | 0.0662 | 0.0489 | – | – | – | – | – | –
A207G | 0.0789 | 0.113 | 0.0893 | – | – | 0.122 | – | 0.105 | 0.105
L235K | – | – | – | 0.144 | 0.148 | 0.134 | 0.124 | 0.136 | 0.0766
Y179F | 0.124 | – | – | – | – | – | – | 0.0895 | –
Q198M | 0.1 | 0.135 | 0.106 | – | 0.0799 | 0.106 | – | – | –
V157Q | 0.0713 | 0.088 | – | – | – | 0.102 | – | 0.0808 | –
V157P | 0.0594 | 0.0325 | 0.0389 | – | 0.0538 | 0.0456 | – | – | –
G2R | – | 0.153 | 0.146 | – | 0.156 | 0.177 | – | 0.122 | 0.147
G202D | 0.0573 | 0.0782 | – | – | 0.0878 | – | – | – | 0.0703

Variant | area with substrate EGLYFQS | area with substrate EKLYFQS | area with substrate ERLYFQS | area with substrate EELYFQS | area with substrate ELLYFQS | area with substrate EQLYFQS | area with substrate ETLYFQS | area with substrate ECLYFQS | area with substrate EYLYFQS
G202P | – | 0.064 | 0.0572 | 0.0598 | – | – | – | – | –
D208P | – | 0.0652 | 0.0794 | 0.0701 | 0.0846 | 0.0755 | 0.0872 | – | –
V217F | 0.0759 | 0.0976 | – | – | 0.104 | 0.0481 | 0.0658 | 0.0883 | –
V217T | – | 0.0691 | – | 0.0929 | 0.0964 | – | – | – | –
W212R | – | 0.0295 | 0.0544 | – | 0.0589 | 0.0645 | 0.0637 | – | –
W212C | – | 0.131 | – | – | 0.0712 | 0.106 | 0.114 | 0.121 | –
N178D | – | – | – | – | 0.0754 | – | – | 0.0624 | 0.0644
N178H | 0.0865 | 0.124 | – | – | – | 0.132 | 0.161 | – | 0.133
N178G | – | 0.116 | 0.127 | 0.15 | 0.105 | – | – | 0.099 | –
N206Y | – | – | 0.0926 | 0.0887 | 0.0735 | – | – | 0.0614 | 0.0908
Q234A | – | 0.0986 | – | – | 0.0781 | 0.117 | – | 0.109 | 0.0829
P228M | 0.0689 | 0.111 | 0.0882 | – | 0.0845 | – | – | 0.105 | –
P228L | – | 0.104 | 0.105 | 0.0651 | – | 0.09 | – | – | 0.0832
P228K | 0.143 | – | 0.11 | – | – | 0.111 | – | – | 0.113
S182I | – | 0.075 | 0.0855 | 0.115 | 0.0825 | 0.111 | – | – | 0.0751
N193L | – | – | – | – | – | 0.08 | 0.101 | – | –
